biological target: HCV NS3/NS4A protease (strain 1a) (Hepatitis C virus genotype 1a, UniProt P27958); test: biochemical; details: Table 5; HCV NS3/NS4A protease, spectrophotometric assay, 30° C., pH 6.5; read-out: Ki* Range

Structure (SMILES) | Ki
CC(C)(C)OC(=O)N[C@H](C(=O)N1C[C@H]2[C@@H]([C@H]1C(=O)NC(CC1CC1)C(=O)C(N)=O)C2(C)C)C1CCCC1 (some centres unmarked) | 1 to 100 nM
C=CCC(NC(=O)[C@@H]1[C@@H]2[C@H](CN1C(=O)[C@@H](NC(=O)OC(C)(C)C)C1CCCCC1)C2(C)C)C(=O)C(N)=O (some centres unmarked) | 101 to 1000 nM
CC(C)CC(NC(=O)[C@@H]1[C@@H]2[C@H](CN1C(=O)[C@@H](NC(=O)OC(C)(C)C)C1CCCCC1)C2(C)C)C(=O)C(N)=O (some centres unmarked) | 101 to 1000 nM
CC(C)(C)CC(NC(=O)[C@@H]1[C@@H]2[C@H](CN1C(=O)[C@@H](NC(=O)OC(C)(C)C)C(C)(C)C)C2(C)C)C(=O)C(N)=O (some centres unmarked) | > 1000 nM
CC(C)C(NC(=O)OC(C)(C)C)C(=O)N1C[C@H]2[C@@H]([C@H]1C(=O)NC(CC1CC1)C(=O)C(N)=O)C2(C)C (some centres unmarked) | 101 to 1000 nM
CC(C)(C)OC(=O)C[C@H](C(=O)N1C[C@H]2[C@@H]([C@H]1C(=O)NC(CCC1CC1)C(=O)C(N)=O)C2(C)C)C1CCCCC1 (some centres unmarked) | 101 to 1000 nM
CCCC(NC(=O)[C@@H]1CC(NS(=O)(=O)c2ccc(OC)cc2)CN1C(=O)[C@@H](NC(=O)OC(C)(C)C)C1CCCCC1)C(=O)C(=O)NCC(=O)N[C@H](C(=O)N(C)C)c1ccccc1 (some centres unmarked) | 1 to 100 nM
C=CCCC(NC(=O)[C@@H]1[C@H]2OC(C)(C)O[C@H]2CN1C(=O)[C@@H](NC(=O)OC(C)(C)C)C(C)(C)C)C(=O)C(=O)NCC(=O)N[C@H](C(=O)N(C)C)c1ccccc1 (some centres unmarked) | 101 to 1000 nM
CN(C)C(=O)C(NC(=O)CNC(=O)C(=O)C(CC1CC1)NC(=O)[C@@H]1[C@H]2[C@@H](CN1C(=O)[C@@H](NC(=O)OC(C)(C)C)C(C)(C)C)C2(Cl)Cl)c1ccccc1 (some centres unmarked) | 1 to 100 nM
CN(C)C(=O)[C@@H](NC(=O)CNC(=O)C(=O)C(CC1CC1)NC(=O)[C@@H]1C2C(CN1C(=O)C(NC(=O)OC(C)(C)C)C1Cc3ccccc3C1)C2(Cl)Cl)c1ccccc1 (some centres unmarked) | 1 to 100 nM
CCCCC(NC(=O)[C@@H]1C2C(CN1C(=O)[C@@H](NC(=O)OC(C)(C)C)C(C)(C)C)C2(Cl)Cl)C(=O)C(=O)NCC(=O)N[C@H](C(=O)N(C)C)c1ccccc1 (some centres unmarked) | 1 to 100 nM
C=CCCC(NC(=O)[C@@H]1C2C(CN1C(=O)[C@@H](NC(=O)OC(C)(C)C)C1Cc3ccccc3C1)C2(Cl)Cl)C(=O)C(=O)NCC(=O)N[C@H](C(=O)N(C)C)c1ccccc1 (some centres unmarked) | 1 to 100 nM
CN(C)C(=O)[C@@H](NC(=O)CNC(=O)C(=O)C(CC1CCC1)NC(=O)[C@@H]1C2C(CN1C(=O)[C@@H](NC(=O)OC(C)(C)C)C1CCCCC1)C2(C)C)c1ccccc1 (some centres unmarked) | 1 to 100 nM
CN(C)C(=O)C(NC(=O)CNC(=O)C(=O)C(CC1CC1)NC(=O)[C@@H]1C2C(CN1C(=O)C(NC(=O)OC(C)(C)C)C1CCCCC1)C2(Cl)Cl)c1ccccc1 (some centres unmarked) | 1 to 100 nM
C=CCCC(NC(=O)[C@@H]1C2C(CN1C(=O)[C@@H](NC(=O)OCC(C)C)C1Cc3ccccc3C1)C2(C)C)C(=O)C(=O)NCC(=O)N[C@H](C(=O)N(C)C)c1ccccc1 (some centres unmarked) | 1 to 100 nM
C=CCCC(NC(=O)[C@@H]1C2C(CN1C(=O)C(NC(=O)OC(C)(C)C)C1CCCCC1)C2(C)C)C(=O)C(=O)NCC(=O)N[C@H](C(=O)N(C)C)c1ccccc1 (some centres unmarked) | 1 to 100 nM
CN(C)C(=O)[C@@H](NC(=O)CNC(=O)C(=O)[C@@H](CC1CCC1)NC(=O)[C@@H]1[C@H]2OC(C)(C)O[C@H]2CN1C(=O)[C@@H](NC(=O)OC(C)(C)C)C(C)(C)C)c1ccccc1 | 1 to 100 nM
CN(C)C(=O)[C@@H](NC(=O)CNC(=O)C(=O)[C@H](CC1CCC1)NC(=O)[C@@H]1[C@H]2OC(C)(C)O[C@H]2CN1C(=O)[C@@H](NC(=O)OC(C)(C)C)C(C)(C)C)c1ccccc1 | 1 to 100 nM
C=CCCC(NC(=O)[C@@H]1[C@H]2[C@@H](CN1C(=O)[C@@H](NC(=O)OC(C)(C)C)C(C)(C)C)C2(C)C)C(=O)C(=O)OCC (some centres unmarked) | > 1000 nM
C=CCCC(NC(=O)[C@@H]1[C@H]2[C@@H](CN1C(=O)[C@@H](NC(=O)OC(C)(C)C)C(C)(C)C)C2(C)C)C(=O)C(=O)O (some centres unmarked) | 101 to 1000 nM
CCCC(NC(=O)[C@@H]1[C@@H]2[C@H](CN1C(=O)[C@@H](NC(=O)[C@H](CC(C)C)NS(C)(=O)=O)C(C)(C)C)C2(C)C)C(=O)C(=O)OC (some centres unmarked) | > 1000 nM
CCCC(NC(=O)[C@@H]1[C@@H]2[C@H](CN1C(=O)[C@@H](NC(=O)[C@H](CC(C)C)NS(C)(=O)=O)C(C)(C)C)C2(C)C)C(=O)C(=O)O (some centres unmarked) | 101 to 1000 nM

Structure (SMILES) | Ki
COC(=O)C(=O)C1(NC(=O)[C@@H]2[C@@H]3[C@H](CN2C(=O)[C@@H](NC(=O)OC(C)(C)C)C(C)(C)C)C3(C)C)CC1 | > 1000 nM
CCCCC(NC(=O)[C@@H]1CC(C)(C)CN1C(=O)[C@@H](NC(=O)OC(C)(C)C)C(C)(C)C)C(=O)C(=O)OC (some centres unmarked) | > 1000 nM
CCC[C@@H](NC(=O)C1C2CCC(C2)N1C(=O)[C@H](NC(=O)OC(C)(C)C)C(C)(C)C)C(=O)C(=O)OC(C)(C)C (some centres unmarked) | > 1000 nM
CCC[C@@H](NC(=O)C1C2CCC(C2)N1C(=O)[C@@H](NC(=O)OC(C)(C)C)C(C)(C)C)C(=O)C(=O)OC(C)(C)C (some centres unmarked) | > 1000 nM
CCCC(NC(=O)[C@@H]1C2CCC(C2)N1C(=O)[C@H](NC(=O)OC(C)(C)C)C1CCCCC1)C(=O)C(=O)OC (some centres unmarked) | > 1000 nM
CCCC(NC(=O)[C@@H]1C2CCC(C2)N1C(=O)[C@H](NC(=O)OC(C)(C)C)C(C)(C)C)C(=O)C(=O)OC (some centres unmarked) | > 1000 nM
COC(=O)C(=O)C(CC1CC1)NC(=O)[C@@H]1[C@@H]2[C@H](CN1C(=O)[C@@H](NC(=O)OC(C)(C)C)C(C)(C)C)C2(C)C (some centres unmarked) | > 1000 nM
CCCC(NC(=O)[C@@H]1CC(C)(C)CN1C(=O)[C@H](NC(=O)OC(C)(C)C)C(C)(C)C)C(=O)C(=O)OC(C)(C)C (some centres unmarked) | > 1000 nM
CCCC(NC(=O)C1C2CCC(C2)N1C(=O)C(NC(=O)OC(C)(C)C)C1CCCCC1)C(=O)C(=O)OCc1ccccc1 (centres unmarked) | > 1000 nM
CC(C)(C)OC(=O)N[C@H](C(=O)N1C[C@H]2[C@@H]([C@H]1C(=O)NC1(C(=O)C(=O)O)CC1)C2(C)C)C(C)(C)C | > 1000 nM
CC(C)(C)OC(=O)N[C@H](C(=O)N1C[C@H]2[C@@H]([C@H]1C(=O)NC(CC1CC1)C(=O)C(=O)O)C2(C)C)C(C)(C)C (some centres unmarked) | 101 to 1000 nM
COC(=O)C(=O)C(CC1CC1)NC(=O)[C@@H]1[C@@H]2[C@H](CN1C(=O)[C@@H](NC(=O)OC(C)(C)C)C1CCCCC1)C2(C)C (some centres unmarked) | > 1000 nM
CC(C)(C)OC(=O)N[C@H](C(=O)N1C[C@H]2[C@@H]([C@H]1C(=O)NC(CC1CC1)C(=O)C(=O)O)C2(C)C)C1CCCCC1 (some centres unmarked) | 101 to 1000 nM
COC(=O)C(=O)C(CC1CC1)NC(=O)[C@@H]1[C@@H]2[C@H](CN1C(=O)[C@@H](NC(=O)OC(C)(C)C)C1CCC(F)(F)CC1)C2(C)C (some centres unmarked) | > 1000 nM
CC(C)(C)OC(=O)N[C@H](C(=O)N1C[C@H]2[C@@H]([C@H]1C(=O)NC(CC1CC1)C(=O)C(=O)O)C2(C)C)C1CCC(F)(F)CC1 (some centres unmarked) | 101 to 1000 nM
CCCC(NC(=O)C1[C@H]2[C@@H](CN1C(=O)C(NC(=O)OC(C)(C)C)C1CCC(F)(F)CC1)C2(C)C)C(=O)C(=O)O (some centres unmarked) | > 1000 nM
CCCC(NC(=O)[C@@H]1CC(c2ccccc2)CN1C(=O)OC(C)(C)C)C(=O)C(=O)OC (some centres unmarked) | > 1000 nM
COC(=O)C(=O)C(CC1CC1)NC(=O)[C@@H]1[C@@H]2[C@H](CN1C(=O)CC(C)(C)C)C2(C)C (some centres unmarked) | > 1000 nM
CC(C)(C)CC(=O)N1C[C@H]2[C@@H]([C@H]1C(=O)NC(CC1CC1)C(=O)C(=O)O)C2(C)C (some centres unmarked) | > 1000 nM
COC(=O)C(=O)C(CC1CC1)NC(=O)[C@@H]1[C@@H]2[C@H](CN1C(=O)CC1CCCCC1)C2(C)C (some centres unmarked) | > 1000 nM
CC1(C)[C@@H]2[C@@H](C(=O)NC(CC3CC3)C(=O)C(=O)O)N(C(=O)CC3CCCCC3)C[C@@H]21 (some centres unmarked) | > 1000 nM
COC(=O)C(=O)C(CC1CC1)NC(=O)[C@@H]1[C@@H]2[C@H](CN1C(=O)[C@@H](NC(=O)OC(C)(C)C)C1CCCC1)C2(C)C (some centres unmarked) | > 1000 nM

— US7592316B2, “Peptides as NS3-serine protease inhibitors of hepatitis C virus” (Schering Corporation, priority 2000, dated 2009)
